Results: article PMC4302535
No constants are given. Whether binding was seen depends on the method and setting. In cells and extracts the contact can be indirect. Some entries that bind do so weakly or less than the wild type. For some assays here: Where a sequence is shown, tags or fusion partners need not be part of it.

Amino acid sequences for entries named in this document (tags omitted).
UniProt P04147: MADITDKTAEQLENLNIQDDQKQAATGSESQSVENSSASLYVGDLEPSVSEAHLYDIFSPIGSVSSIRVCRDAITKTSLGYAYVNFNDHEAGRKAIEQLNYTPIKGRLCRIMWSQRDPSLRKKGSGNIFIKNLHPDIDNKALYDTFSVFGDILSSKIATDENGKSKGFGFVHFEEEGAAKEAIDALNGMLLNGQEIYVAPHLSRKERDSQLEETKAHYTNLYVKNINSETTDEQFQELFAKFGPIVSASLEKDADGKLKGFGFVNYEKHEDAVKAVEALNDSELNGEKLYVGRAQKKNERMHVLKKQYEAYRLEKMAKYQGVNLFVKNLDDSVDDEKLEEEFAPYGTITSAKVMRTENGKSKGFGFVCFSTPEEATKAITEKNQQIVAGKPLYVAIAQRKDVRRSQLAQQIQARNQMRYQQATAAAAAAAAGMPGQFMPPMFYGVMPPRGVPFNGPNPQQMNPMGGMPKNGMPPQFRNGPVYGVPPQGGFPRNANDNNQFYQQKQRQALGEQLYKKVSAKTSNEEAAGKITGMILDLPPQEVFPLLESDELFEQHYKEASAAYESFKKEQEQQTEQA

T1: eIF4E-TAP (S. cerevisiae) (UniProt P07260)
T1 sequence: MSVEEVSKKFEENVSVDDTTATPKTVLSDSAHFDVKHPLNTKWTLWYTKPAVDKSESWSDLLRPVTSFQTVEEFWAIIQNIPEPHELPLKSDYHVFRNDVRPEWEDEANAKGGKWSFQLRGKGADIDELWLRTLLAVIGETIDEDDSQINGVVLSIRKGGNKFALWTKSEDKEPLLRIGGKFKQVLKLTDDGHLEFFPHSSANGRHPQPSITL

T2: eIF4G2-TAP (S. cerevisiae) (UniProt P39936)
T2 sequence: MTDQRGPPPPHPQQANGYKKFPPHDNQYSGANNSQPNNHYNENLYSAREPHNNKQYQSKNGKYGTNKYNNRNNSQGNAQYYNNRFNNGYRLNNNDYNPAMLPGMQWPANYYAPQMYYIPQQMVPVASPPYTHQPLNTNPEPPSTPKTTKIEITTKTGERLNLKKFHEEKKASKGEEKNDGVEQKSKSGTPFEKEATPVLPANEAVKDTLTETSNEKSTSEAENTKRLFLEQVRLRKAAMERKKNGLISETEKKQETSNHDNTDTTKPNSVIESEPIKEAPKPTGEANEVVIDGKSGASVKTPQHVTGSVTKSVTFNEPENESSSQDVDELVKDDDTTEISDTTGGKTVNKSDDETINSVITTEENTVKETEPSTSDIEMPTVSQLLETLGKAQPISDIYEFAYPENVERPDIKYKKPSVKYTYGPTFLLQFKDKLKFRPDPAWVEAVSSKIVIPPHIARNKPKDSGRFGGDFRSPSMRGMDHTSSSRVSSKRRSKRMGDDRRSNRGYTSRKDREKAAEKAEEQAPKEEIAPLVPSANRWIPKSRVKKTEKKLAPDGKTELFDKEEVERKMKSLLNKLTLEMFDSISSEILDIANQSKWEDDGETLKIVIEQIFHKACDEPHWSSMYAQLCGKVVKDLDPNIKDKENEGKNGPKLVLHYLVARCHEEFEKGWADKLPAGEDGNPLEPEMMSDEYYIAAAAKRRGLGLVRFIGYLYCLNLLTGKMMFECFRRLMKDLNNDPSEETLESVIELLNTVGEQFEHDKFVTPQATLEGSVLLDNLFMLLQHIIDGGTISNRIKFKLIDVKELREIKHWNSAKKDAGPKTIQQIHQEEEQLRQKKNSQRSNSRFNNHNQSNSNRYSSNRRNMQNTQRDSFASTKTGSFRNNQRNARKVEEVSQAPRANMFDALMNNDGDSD

T3: Caf20p-TAP (S. cerevisiae) (UniProt P12962)
T3 sequence: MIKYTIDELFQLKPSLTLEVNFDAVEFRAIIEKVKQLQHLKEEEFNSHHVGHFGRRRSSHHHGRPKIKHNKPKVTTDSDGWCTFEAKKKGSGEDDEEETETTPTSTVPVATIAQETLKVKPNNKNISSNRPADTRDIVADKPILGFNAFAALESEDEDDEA

T4: Eap1p-TAP (S. cerevisiae) (UniProt P36041)
T4 sequence: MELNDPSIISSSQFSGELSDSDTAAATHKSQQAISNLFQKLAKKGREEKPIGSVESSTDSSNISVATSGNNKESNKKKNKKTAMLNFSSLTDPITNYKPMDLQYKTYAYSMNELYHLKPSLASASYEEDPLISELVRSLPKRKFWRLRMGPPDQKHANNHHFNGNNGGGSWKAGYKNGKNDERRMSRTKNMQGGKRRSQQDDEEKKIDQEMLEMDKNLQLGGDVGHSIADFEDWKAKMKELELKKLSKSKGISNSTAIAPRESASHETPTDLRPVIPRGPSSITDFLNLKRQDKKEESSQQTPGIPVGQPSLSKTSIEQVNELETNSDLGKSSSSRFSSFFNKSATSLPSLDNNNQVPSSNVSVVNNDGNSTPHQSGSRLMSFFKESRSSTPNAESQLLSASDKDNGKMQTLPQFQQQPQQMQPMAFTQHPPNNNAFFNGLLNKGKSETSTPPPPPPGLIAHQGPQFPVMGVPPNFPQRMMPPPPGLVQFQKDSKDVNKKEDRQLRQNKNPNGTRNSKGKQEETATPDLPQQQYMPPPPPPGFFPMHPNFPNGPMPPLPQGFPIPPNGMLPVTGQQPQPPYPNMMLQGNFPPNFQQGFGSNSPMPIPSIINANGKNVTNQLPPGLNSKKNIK

T5: eIF4G1-TAP (S. cerevisiae) (UniProt P39935)
T5 sequence: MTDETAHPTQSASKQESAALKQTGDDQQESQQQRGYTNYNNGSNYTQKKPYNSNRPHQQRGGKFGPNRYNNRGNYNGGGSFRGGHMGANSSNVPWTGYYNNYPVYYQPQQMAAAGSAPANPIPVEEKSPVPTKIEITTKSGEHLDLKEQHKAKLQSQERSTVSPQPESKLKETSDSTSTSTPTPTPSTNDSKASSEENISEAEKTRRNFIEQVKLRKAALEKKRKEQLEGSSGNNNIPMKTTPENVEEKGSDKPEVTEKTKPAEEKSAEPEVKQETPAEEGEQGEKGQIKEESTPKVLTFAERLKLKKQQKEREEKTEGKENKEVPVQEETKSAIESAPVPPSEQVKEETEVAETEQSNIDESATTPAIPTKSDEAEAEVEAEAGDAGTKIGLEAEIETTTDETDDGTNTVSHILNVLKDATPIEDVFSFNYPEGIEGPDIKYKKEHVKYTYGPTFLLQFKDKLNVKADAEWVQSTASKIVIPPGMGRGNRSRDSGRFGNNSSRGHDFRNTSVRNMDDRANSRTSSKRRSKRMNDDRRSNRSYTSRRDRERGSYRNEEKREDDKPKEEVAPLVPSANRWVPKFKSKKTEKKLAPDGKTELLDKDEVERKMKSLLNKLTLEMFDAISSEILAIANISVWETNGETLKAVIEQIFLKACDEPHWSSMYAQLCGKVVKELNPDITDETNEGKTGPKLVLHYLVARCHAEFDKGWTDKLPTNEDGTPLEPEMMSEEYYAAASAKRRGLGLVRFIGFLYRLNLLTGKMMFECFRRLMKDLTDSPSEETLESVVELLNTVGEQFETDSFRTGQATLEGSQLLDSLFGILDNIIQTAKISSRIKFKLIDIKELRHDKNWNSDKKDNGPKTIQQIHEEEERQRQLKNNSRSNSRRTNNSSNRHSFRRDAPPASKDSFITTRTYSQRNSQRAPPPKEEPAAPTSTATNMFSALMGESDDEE

B1: eIF4G1 (protein, UniProt P39935 1-952)
chain: MTDETAHPTQSASKQESAALKQTGDDQQESQQQRGYTNYNNGSNYTQKKPYNSNRPHQQRGGKFGPNRYNNRGNYNGGGSFRGGHMGANSSNVPWTGYYNNYPVYYQPQQMAAAGSAPANPIPVEEKSPVPTKIEITTKSGEHLDLKEQHKAKLQSQERSTVSPQPESKLKETSDSTSTSTPTPTPSTNDSKASSEENISEAEKTRRNFIEQVKLRKAALEKKRKEQLEGSSGNNNIPMKTTPENVEEKGSDKPEVTEKTKPAEEKSAEPEVKQETPAEEGEQGEKGQIKEESTPKVLTFAERLKLKKQQKEREEKTEGKENKEVPVQEETKSAIESAPVPPSEQVKEETEVAETEQSNIDESATTPAIPTKSDEAEAEVEAEAGDAGTKIGLEAEIETTTDETDDGTNTVSHILNVLKDATPIEDVFSFNYPEGIEGPDIKYKKEHVKYTYGPTFLLQFKDKLNVKADAEWVQSTASKIVIPPGMGRGNRSRDSGRFGNNSSRGHDFRNTSVRNMDDRANSRTSSKRRSKRMNDDRRSNRSYTSRRDRERGSYRNEEKREDDKPKEEVAPLVPSANRWVPKFKSKKTEKKLAPDGKTELLDKDEVERKMKSLLNKLTLEMFDAISSEILAIANISVWETNGETLKAVIEQIFLKACDEPHWSSMYAQLCGKVVKELNPDITDETNEGKTGPKLVLHYLVARCHAEFDKGWTDKLPTNEDGTPLEPEMMSEEYYAAASAKRRGLGLVRFIGFLYRLNLLTGKMMFECFRRLMKDLTDSPSEETLESVVELLNTVGEQFETDSFRTGQATLEGSQLLDSLFGILDNIIQTAKISSRIKFKLIDIKELRHDKNWNSDKKDNGPKTIQQIHEEEERQRQLKNNSRSNSRRTNNSSNRHSFRRDAPPASKDSFITTRTYSQRNSQRAPPPKEEPAAPTSTATNMFSALMGESDDEE
B2: endogenous Caf20p (protein, UniProt P12962 1-161)
chain: MIKYTIDELFQLKPSLTLEVNFDAVEFRAIIEKVKQLQHLKEEEFNSHHVGHFGRRRSSHHHGRPKIKHNKPKVTTDSDGWCTFEAKKKGSGEDDEEETETTPTSTVPVATIAQETLKVKPNNKNISSNRPADTRDIVADKPILGFNAFAALESEDEDDEA
B3: Flag-tagged Caf20p (protein, UniProt P12962 1-161)
chain: MIKYTIDELFQLKPSLTLEVNFDAVEFRAIIEKVKQLQHLKEEEFNSHHVGHFGRRRSSHHHGRPKIKHNKPKVTTDSDGWCTFEAKKKGSGEDDEEETETTPTSTVPVATIAQETLKVKPNNKNISSNRPADTRDIVADKPILGFNAFAALESEDEDDEA
B4: eIF4E (protein, UniProt P07260 1-213)
chain: MSVEEVSKKFEENVSVDDTTATPKTVLSDSAHFDVKHPLNTKWTLWYTKPAVDKSESWSDLLRPVTSFQTVEEFWAIIQNIPEPHELPLKSDYHVFRNDVRPEWEDEANAKGGKWSFQLRGKGADIDELWLRTLLAVIGETIDEDDSQINGVVLSIRKGGNKFALWTKSEDKEPLLRIGGKFKQVLKLTDDGHLEFFPHSSANGRHPQPSITL

Columns and labels:
Experiment in all cases: co-IP; TAP-tagged bait captured from yeast whole-cell lysate on rabbit IgG coupled to Tosyl-activated Dynabeads M-280; Buffer A (20 mM Tris-HCl pH 8, 140 mM NaCl, 1 mM MgCl2, 0.5% NP40, 0.5 mM DTT, with RNasin); eluates probed on western blots
[1] = molecular target: T1, eIF4E-TAP (S. cerevisiae)
[2] = molecular target: T2, eIF4G2-TAP (S. cerevisiae)
[3] = molecular target: T3, Caf20p-TAP (S. cerevisiae)
[4] = molecular target: T4, Eap1p-TAP (S. cerevisiae)
[5] = molecular target: Pab1p-TAP (S. cerevisiae) (UniProt P04147)
[6] = molecular target: T5, eIF4G1-TAP (S. cerevisiae)

| Molecule | binding [1] | binding [2] | binding [3] | binding [4] | binding [5] | binding [6] |
| --- | --- | --- | --- | --- | --- | --- |
| Pab1p (from UniProt P04147 1-577) | binds | binds |  |  |  |  |
| B1 | binds |  | no binding | no binding |  |  |
| B2 | binds |  |  |  |  |  |
| B3 | binds |  |  |  |  |  |
| B4 |  | binds | binds |  | binds | binds |
